The list shows a part of the results.
Assays:
Experiment in all cases: glycan array binding signal (z-score within array); higher = stronger binding
Details in all cases: glycan notation: IUPAC condensed, linker removed
[1] = target: GlcNAc(b1-2)[GlcNAc(b1-4)]Man(a1-3)[GlcNAc(b1-4)][GlcNAc(b1-2)[GlcNAc(b1-6)]Man(a1-6)]Man(b1-4)GlcNAc(b1-4)GlcNAc
Outline: (§1)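 Arrays were curated from the Consortium for Functional Glycomics database, 3228 in total, and kept only where the protein sequence was available. Binding is expressed as a within-array Z-score. This score was averaged across arrays of the same protein sequence at different concentrations or buffers and across linkers, and negative values can be read as non-binding.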

[2] = target: GlcNAc(b1-2)[GlcNAc(b1-4)]Man(a1-3)[GlcNAc(b1-4)][GlcNAc(b1-2)[GlcNAc(b1-6)]Man(a1-6)]Man(b1-4)GlcNAc(b1-4)[Fuc(a1-6)]GlcNAc
Outline: as §1

[3] = target: GlcNAc(b1-2)[GlcNAc(b1-6)]Man(a1-6)[GlcNAc(b1-2)Man(a1-3)]Man(b1-4)GlcNAc(b1-4)GlcNAc
Outline: as §1

[4] = target: GlcNAc(b1-2)[GlcNAc(b1-6)]Man(a1-6)[GlcNAc(b1-2)Man(a1-3)]Man(b1-4)GlcNAc(b1-4)[Fuc(a1-6)]GlcNAc
Outline: as §1

[5] = target: GlcNAc(b1-2)[GlcNAc(b1-6)]Man(a1-6)[GlcNAc(b1-4)][GlcNAc(b1-2)Man(a1-3)]Man(b1-4)GlcNAc(b1-4)GlcNAc
Outline: as §1

[6] = target: GlcNAc(b1-3)Fuc
Outline: as §1

[7] = target: GlcNAc(b1-3)Gal
Outline: as §1

[8] = target: GlcNAc(b1-3)Gal(b1-3)GalNAc
Outline: as §1

[9] = target: GlcNAc(b1-3)Gal(b1-4)Glc
Outline: as §1

[10] = target: GlcNAc(b1-3)Gal(b1-4)GlcNAc
Outline: as §1

[11] = target: GlcNAc(b1-3)Gal(b1-4)GlcNAc(b1-2)Man(a1-3)[GlcNAc(b1-3)Gal(b1-4)GlcNAc(b1-2)Man(a1-6)]Man(b1-4)GlcNAc(b1-4)GlcNAc
Outline: as §1

[12] = target: GlcNAc(b1-3)Gal(b1-4)GlcNAc(b1-2)Man(a1-3)[GlcNAc(b1-3)Gal(b1-4)GlcNAc(b1-2)Man(a1-6)]Man(b1-4)GlcNAc(b1-4)[Fuc(a1-6)]GlcNAc
Outline: as §1

[13] = target: GlcNAc(b1-3)Gal(b1-4)GlcNAc(b1-2)[GlcNAc(b1-3)Gal(b1-4)GlcNAc(b1-6)]Man(a1-6)[GlcNAc(b1-3)Gal(b1-4)GlcNAc(b1-2)Man(a1-3)]Man(b1-4)GlcNAc(b1-4)GlcNAc
Outline: as §1

[14] = target: GlcNAc(b1-3)Gal(b1-4)GlcNAc(b1-3)Gal(b1-4)GlcNAc
Outline: as §1

[15] = target: GlcNAc(b1-3)Gal(b1-4)GlcNAc(b1-3)Gal(b1-4)GlcNAc(b1-2)Man(a1-3)[GlcNAc(b1-3)Gal(b1-4)GlcNAc(b1-3)Gal(b1-4)GlcNAc(b1-2)Man(a1-6)]Man(b1-4)GlcNAc(b1-4)GlcNAc
Outline: as §1

[16] = target: GlcNAc(b1-3)Gal(b1-4)GlcNAc(b1-3)Gal(b1-4)GlcNAc(b1-2)Man(a1-3)[GlcNAc(b1-3)Gal(b1-4)GlcNAc(b1-3)Gal(b1-4)GlcNAc(b1-2)Man(a1-6)]Man(b1-4)GlcNAc(b1-4)[Fuc(a1-6)]GlcNAc
Outline: as §1

[17] = target: GlcNAc(b1-3)Gal(b1-4)GlcNAc(b1-3)Gal(b1-4)GlcNAc(b1-2)[GlcNAc(b1-3)Gal(b1-4)GlcNAc(b1-3)Gal(b1-4)GlcNAc(b1-6)]Man(a1-6)[GlcNAc(b1-3)Gal(b1-4)GlcNAc(b1-3)Gal(b1-4)GlcNAc(b1-2)Man(a1-3)]Man(b1-4)GlcNAc(b1-4)[Fuc(a1-6)]GlcNAc
Outline: as §1

[18] = target: GlcNAc(b1-3)Gal(b1-4)GlcNAc(b1-3)Gal(b1-4)GlcNAc(b1-3)Gal(b1-4)GlcNAc(b1-2)Man(a1-3)[GlcNAc(b1-3)Gal(b1-4)GlcNAc(b1-3)Gal(b1-4)GlcNAc(b1-3)Gal(b1-4)GlcNAc(b1-2)Man(a1-6)]Man(b1-4)GlcNAc(b1-4)GlcNAc
Outline: as §1

[19] = target: GlcNAc(b1-3)Gal(b1-4)GlcNAc(b1-3)Gal(b1-4)GlcNAc(b1-3)Gal(b1-4)GlcNAc(b1-2)Man(a1-3)[GlcNAc(b1-3)Gal(b1-4)GlcNAc(b1-3)Gal(b1-4)GlcNAc(b1-3)Gal(b1-4)GlcNAc(b1-2)Man(a1-6)]Man(b1-4)GlcNAc(b1-4)[Fuc(a1-6)]GlcNAc
Outline: as §1

[20] = target: GlcNAc(b1-3)Gal(b1-4)GlcNAc(b1-3)Gal(b1-4)GlcNAc(b1-3)Gal(b1-4)GlcNAc(b1-2)[GlcNAc(b1-3)Gal(b1-4)GlcNAc(b1-3)Gal(b1-4)GlcNAc(b1-3)Gal(b1-4)GlcNAc(b1-6)]Man(a1-6)[GlcNAc(b1-3)Gal(b1-4)GlcNAc(b1-3)Gal(b1-4)GlcNAc(b1-3)Gal(b1-4)GlcNAc(b1-2)Man(a1-3)]Man(b1-4)GlcNAc(b1-4)[Fuc(a1-6)]GlcNAc
Outline: as §1

[21] = target: GlcNAc(b1-3)Gal(b1-4)GlcNAc(b1-3)Gal(b1-4)GlcNAc(b1-3)Gal(b1-4)GlcNAc(b1-3)Gal(b1-4)GlcNAc(b1-2)Man(a1-3)[GlcNAc(b1-3)Gal(b1-4)GlcNAc(b1-3)Gal(b1-4)GlcNAc(b1-3)Gal(b1-4)GlcNAc(b1-3)Gal(b1-4)GlcNAc(b1-2)Man(a1-6)]Man(b1-4)GlcNAc(b1-4)GlcNAc
Outline: as §1

[22] = target: GlcNAc(b1-3)Gal(b1-4)GlcNAc(b1-3)Gal(b1-4)GlcNAc(b1-3)Gal(b1-4)GlcNAc(b1-3)Gal(b1-4)GlcNAc(b1-2)Man(a1-3)[GlcNAc(b1-3)Gal(b1-4)GlcNAc(b1-3)Gal(b1-4)GlcNAc(b1-3)Gal(b1-4)GlcNAc(b1-3)Gal(b1-4)GlcNAc(b1-2)Man(a1-6)]Man(b1-4)GlcNAc(b1-4)[Fuc(a1-6)]GlcNAc
Outline: as §1

[23] = target: GlcNAc(b1-3)Gal(b1-4)GlcNAc(b1-3)Gal(b1-4)GlcNAc(b1-3)Gal(b1-4)GlcNAc(b1-3)Gal(b1-4)GlcNAc(b1-2)[GlcNAc(b1-3)Gal(b1-4)GlcNAc(b1-3)Gal(b1-4)GlcNAc(b1-3)Gal(b1-4)GlcNAc(b1-3)Gal(b1-4)GlcNAc(b1-6)]Man(a1-6)[GlcNAc(b1-3)Gal(b1-4)GlcNAc(b1-3)Gal(b1-4)GlcNAc(b1-3)Gal(b1-4)GlcNAc(b1-3)Gal(b1-4)GlcNAc(b1-2)Man(a1-3)]Man(b1-4)GlcNAc(b1-4)[Fuc(a1-6)]GlcNAc
Outline: as §1

[24] = target: GlcNAc(b1-3)Gal(b1-4)GlcNAc(b1-3)Gal(b1-4)GlcNAc(b1-3)GalNAc
Outline: as §1

[25] = target: GlcNAc(b1-3)Gal(b1-4)GlcNAc(b1-3)GalNAc
Outline: as §1

[26] = target: GlcNAc(b1-3)Gal(b1-4)GlcNAc(b1-3)[GlcNAc(b1-3)Gal(b1-4)GlcNAc(b1-3)]GalNAc
Outline: as §1

[27] = target: GlcNAc(b1-3)Gal(b1-4)GlcNAc(b1-6)[Gal(b1-3)]GalNAc
Outline: as §1

[28] = target: GlcNAc(b1-3)Gal(b1-4)GlcNAc(b1-6)[GlcNAc(b1-3)Gal(b1-3)]GalNAc
Outline: as §1

[29] = target: GlcNAc(b1-3)Gal(b1-4)GlcNAc(b1-6)[GlcNAc(b1-3)]Gal(b1-4)GlcNAc
Outline: as §1

[30] = target: GlcNAc(b1-3)GalNAc
Outline: as §1

[31] = target: GlcNAc(b1-3)Man
Outline: as §1

[32] = target: GlcNAc(b1-3)[GlcNAc(b1-4)][GlcNAc(b1-6)]GlcNAc
Outline: as §1

[33] = target: GlcNAc(b1-3)[GlcNAc(b1-6)]Gal(b1-4)GlcNAc
Outline: as §1

[34] = target: GlcNAc(b1-3)[GlcNAc(b1-6)]GalNAc
Outline: as §1

[35] = target: GlcNAc(b1-4)Gal(b1-4)GlcNAc
Outline: as §1

[36] = target: GlcNAc(b1-4)GlcNAc
Outline: as §1

[37] = target: GlcNAc(b1-4)GlcNAc(b1-4)GlcNAc
Outline: as §1

[38] = target: GlcNAc(b1-4)GlcNAc(b1-4)GlcNAc(b1-4)GlcNAc(b1-4)GlcNAc
Outline: as §1

B1: Cohesin-hMARCO (Homo sapiens) (protein)
chain: LDDLDAVRIKVDTVNAKPGDTVRIPVRFSGIPSKGIANCDFVYSYDPNVLEIIEIEPGDIIVDPNPDKSFDTAVYPDRKIIVFLFAEDSGTGAYAITKDGVFATIVAKVKEGAPNGLSVIKFVEVGGFANNDLVEQKTQFFDGGANVGDTTEPATPTTPVTTPTTTDDLDAASVRIVGSSNRGRAEVYYSGTWGTICDDEWQNSDAIVFCRMLGYSKGRALYKVGAGTGQIWLDNVQCRGTESTLWSCTKNSWGHHDCSHEEDAGVECSVHHHHHH
B1 was tested, and the “glycan array binding signal (z-score)” value [1] was -0.082, the “glycan array binding signal (z-score)” value [2] was -0.489 and the “glycan array binding signal (z-score)” value [3] was -0.247. The “glycan array binding signal (z-score)” value [4] was -0.244, the “glycan array binding signal (z-score)” value [5] was -0.456 and the “glycan array binding signal (z-score)” value [6] was -0.459. The “glycan array binding signal (z-score)” value [7] was -0.319, the “glycan array binding signal (z-score)” value [8] was -0.463 and the “glycan array binding signal (z-score)” value [9] was -0.396. For the same binder, the “glycan array binding signal (z-score)” value [10] was -0.343, the “glycan array binding signal (z-score)” value [11] was -0.546 and the “glycan array binding signal (z-score)” value [12] was -0.378. For the same binder, the “glycan array binding signal (z-score)” value [13] was 0.023, the “glycan array binding signal (z-score)” value [14] was -0.388 and the “glycan array binding signal (z-score)” value [15] was 0.286. For the same binder, the “glycan array binding signal (z-score)” value [16] was -0.453, the “glycan array binding signal (z-score)” value [17] was -0.25 and the “glycan array binding signal (z-score)” value [18] was -0.424. The “glycan array binding signal (z-score)” value [19] was -0.409, the “glycan array binding signal (z-score)” value [20] was -0.46 and the “glycan array binding signal (z-score)” value [21] was -0.144. The “glycan array binding signal (z-score)” value [22] was -0.467, the “glycan array binding signal (z-score)” value [23] was -0.537 and the “glycan array binding signal (z-score)” value [24] was -0.395. The “glycan array binding signal (z-score)” value [25] was -0.197, the “glycan array binding signal (z-score)” value [26] was -0.556 and the “glycan array binding signal (z-score)” value [27] was -0.507. For the same binder, the “glycan array binding signal (z-score)” value [28] was -0.586, the “glycan array binding signal (z-score)” value [29] was -0.444 and the “glycan array binding signal (z-score)” value [30] was -0.3. For the same binder, the “glycan array binding signal (z-score)” value [31] was -0.51, the “glycan array binding signal (z-score)” value [32] was -0.358 and the “glycan array binding signal (z-score)” value [33] was -0.168. For the same binder, the “glycan array binding signal (z-score)” value [34] was -0.311, the “glycan array binding signal (z-score)” value [35] was -0.422 and the “glycan array binding signal (z-score)” value [36] was -0.339. The “glycan array binding signal (z-score)” value [37] was -0.456 and the “glycan array binding signal (z-score)” value [38] was -0.569.
